# Assay results: the supplement of paper PMC7826260
# Some of the results follow. The data describe in vitro nicking of single-stranded DNA by Rep domains (1 h at 37 °C, 3 µM enzyme); the outer parts of the 90-letter strands are left off. A value is the log2 ratio of uncut reads to the pool without enzyme; more negative means more cut, near 0 not cut, and no call is made. Because reads are shares of a total, they shift together; where an enzyme cuts many sequences, the uncut ones exceed 0.
# Tested on: T1, Rep nickase domain of tomato golden mosaic virus
# T1 sequence (Rep 1-124, printed without the tag): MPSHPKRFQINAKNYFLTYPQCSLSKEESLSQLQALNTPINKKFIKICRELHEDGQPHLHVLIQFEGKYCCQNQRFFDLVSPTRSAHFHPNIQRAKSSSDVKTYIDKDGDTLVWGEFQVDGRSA
# Test: uncleaved DNA left, log2 of reads against the no-enzyme library (log2 ratio); higher = less cleavage (more negative = more Rep cleavage of the k-mer); sequences stand for … in CTCGTCCG…ACCGGAGA
# Method: (§1)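 A pool of 90-nt single-stranded DNAs with seven random bases just before the constant AC of the nick site (name = the seven bases) was cut by 3 µM recombinant His6-SUMO-tagged Rep nickase domain (300 nM DNA, 50 mM HEPES pH 8.0, 50 mM NaCl, 1 mM MnCl2, 1 h, 37 °C, three replicates). Uncut DNA was amplified and sequenced.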
row,Sequence,uncleaved DNA left (log2)
1,TCATCTG,-0.0954
2,ACCGTCG,-0.0335
3,CCTGAAC,-0.115
4,CATGAGA,0.0232
5,GGTAATT,-0.206
6,GACTGGT,0.0991
7,ATACCTA,0.0255
8,CACATAA,0.0544
9,ACCCGGT,0.0545
10,ATCCAAC,0.0193
11,GCAAACT,0.0546
12,TGGATCC,0.0362
13,CGGCAGG,0.194
14,AGGTGAG,-0.0522
15,CGGCAAA,-0.0632
16,TGGCGAG,-0.123
17,GTTGCCG,-0.0871
18,CCTCCCA,-0.254
19,TACCTCC,-0.0491
20,TGTGACG,-0.12

row,Sequence,uncleaved DNA left (log2)
1,TGGACTC,-0.122
2,GATCCCA,0.000549
3,GACTATG,-0.0953
4,ACCCTTG,0.0599
5,GGGGTAC,0.0375
6,CTCATAT,-0.162
7,ATCAATT,0.0289
8,ATCGATT,-0.0645
9,TCTCAAG,0.116
10,TGCTCAC,0.0374
11,GGACATT,-0.153
12,AGGCATT,-0.146
13,CGCGGTA,-0.00778
14,AGGCTCG,0.0541
15,AGAAAAT,0.0389
16,GCAGCTA,0.127
17,GCCATCT,-0.126
18,AGAGATC,0.123
19,CACACAC,-0.0625
20,TGTCCAT,-0.00463

# Tested on: T2, Rep nickase domain of tomato yellow leaf curl virus
# T2 sequence (Rep 1-136, printed without the tag): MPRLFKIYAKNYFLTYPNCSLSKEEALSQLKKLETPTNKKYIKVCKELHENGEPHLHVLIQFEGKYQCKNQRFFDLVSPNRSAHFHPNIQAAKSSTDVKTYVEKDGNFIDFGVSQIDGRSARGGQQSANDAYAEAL
# Test: as above
# Method: as §1
row,Sequence,uncleaved DNA left (log2)
1,TCATCTG,-0.0833
2,ACCGTCG,0.202
3,CCTGAAC,-0.161
4,CATGAGA,0.119
5,GGTAATT,-0.11
6,GACTGGT,0.0611
7,ATACCTA,-0.0599
8,CACATAA,-0.063
9,ACCCGGT,-0.0601
10,ATCCAAC,-0.0533
11,GCAAACT,-0.0817
12,TGGATCC,0.22
13,CGGCAGG,0.195
14,AGGTGAG,0.0588
15,CGGCAAA,0.0184
16,TGGCGAG,-0.0536
17,GTTGCCG,-0.00714
18,CCTCCCA,-0.142
19,TACCTCC,-0.0878
20,TGTGACG,-0.157

row,Sequence,uncleaved DNA left (log2)
1,TGGACTC,0.0512
2,GATCCCA,0.00634
3,GACTATG,-0.155
4,ACCCTTG,-0.00481
5,GGGGTAC,-0.0144
6,CTCATAT,-0.025
7,ATCAATT,0.145
8,ATCGATT,-0.171
9,TCTCAAG,0.00137
10,TGCTCAC,0.0654
11,GGACATT,-0.0397
12,AGGCATT,0.0717
13,CGCGGTA,0.0758
14,AGGCTCG,-0.0372
15,AGAAAAT,-0.018
16,GCAGCTA,-0.0326
17,GCCATCT,0.0246
18,AGAGATC,-0.0389
19,CACACAC,-0.0704
20,TGTCCAT,0.118

# Tested on: T3, Rep nickase domain of wheat dwarf virus
# T3 sequence (Rep 1-137, printed without the tag): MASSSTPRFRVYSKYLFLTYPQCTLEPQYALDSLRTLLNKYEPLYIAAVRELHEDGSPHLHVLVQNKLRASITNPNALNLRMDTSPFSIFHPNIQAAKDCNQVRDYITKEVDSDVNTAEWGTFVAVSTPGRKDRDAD
# Test: as above
# Method: as §1
row,Sequence,uncleaved DNA left (log2)
1,TCATCTG,-0.0207
2,ACCGTCG,-0.00281
3,CCTGAAC,-0.111
4,CATGAGA,0.0688
5,GGTAATT,-0.0371
6,GACTGGT,0.0295
7,ATACCTA,-0.00501
8,CACATAA,0.0937
9,ACCCGGT,-0.0434
10,ATCCAAC,0.0129
11,GCAAACT,-0.0684
12,TGGATCC,0.182
13,CGGCAGG,0.199
14,AGGTGAG,-0.054
15,CGGCAAA,-0.1
16,TGGCGAG,-0.0627
17,GTTGCCG,-0.129
18,CCTCCCA,-0.201
19,TACCTCC,-0.0958
20,TGTGACG,-0.136

row,Sequence,uncleaved DNA left (log2)
1,TGGACTC,0.197
2,GATCCCA,0.0534
3,GACTATG,-0.0706
4,ACCCTTG,0.0673
5,GGGGTAC,0.0853
6,CTCATAT,-0.0455
7,ATCAATT,0.0569
8,ATCGATT,0.00623
9,TCTCAAG,-0.177
10,TGCTCAC,0.0653
11,GGACATT,0.253
12,AGGCATT,0.35
13,CGCGGTA,0.00584
14,AGGCTCG,0.0113
15,AGAAAAT,0.0637
16,GCAGCTA,0.0311
17,GCCATCT,-0.125
18,AGAGATC,0.079
19,CACACAC,-0.0275
20,TGTCCAT,0.0627
